B1: Q9UKT9 (peptide)
chain: FRCEQCGAPFTQKGNLLRHIKL
B2: Q9UKT9 (peptide)
chain: FMCDVCGALFTQKGNLLRHIKL
B3: Q9UKT9 (peptide)
chain: FCCDVCGAAFTQKGNLLRHIKL
B4: Q9UKT9 (peptide)
chain: LDCPICGFECTQKGNLLRHIKL
B5: Q9UKT9 (peptide)
chain: FECDICGATFTQKGNLLRHIKL
B6: Q9UKT9 (peptide)
chain: FFCPICGRCFTQKGNLLRHIKL
B7: Q9UKT9 (peptide)
chain: FWCEVCGALFTQKGNLLRHIKL
B8: Q9UKT9 (peptide)
chain: FWCPICGHRFTQKGNLLRHIKL
B9: Q9UKT9 (peptide)
chain: FCCEQCGAHFTQKGNLLRHIKL
B10: Q9UKT9 (peptide)
chain: FHCNICGASFTQKGNLLRHIKL
B11: Q9UKT9 (peptide)
chain: FECPVCGAKFTQKGNLLRHIKL
B12: Q9UKT9 (peptide)
chain: FWCNQCGHDFTQKGNLLRHIKL
B13: Q9UKT9 (peptide)
chain: FYCEICGRFFTQKGNLLRHIKL
B14: Q9UKT9 (peptide)
chain: LFCNQCGFLCTQKGNLLRHIKL

The list shows a part of the results.
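Note: jurkat cells carrying a lentiviral library of mutant zinc finger degrons fused to EGFP plus mCherry, mCherry+ cells FACS sorted, degron abundance counted by next-generation sequencing.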

The test concerns the target no compound (DMSO). Nature of the test: log2 fold change of degron read counts, EGFP-low vs EGFP+ sorted cells; higher = lower degron-EGFP level without compound (poor expression or instability). To be noted: compound: DMSO control; 18 h.
As for B1, the “log2 fold change of degron read counts” value was -1.27. The figure for B2 is -0.6; for B3 it is -2.64; for B4 it is -0.274. The figure for B5 is -1.66. For the sequence B6, the “log2 fold change of degron read counts” value is -0.469. The figure for B7 is 0.181; for B8 it is 1.01.

As to B9, the “log2 fold change of degron read counts” value was -2.29. The figure for B10 is -0.498. The figure for B11 is -0.402. For B12, the “log2 fold change of degron read counts” value came to 0.667.

For the sequence B13, the “log2 fold change of degron read counts” value came to 0.47.

B14: the “log2 fold change of degron read counts” value is 2.35.
